{"source": "PubChem BioAssay AID445", "about": "(National Center for Advancing Translational Sciences (NCATS), 2006)", "note": "Values joined by “and” are separate entries in the source; they are usually repeats but may differ in a detail not shown here. Equal values may be shown once. Out of some 110,000 compounds screened, about 40 (0.04%) were called active. Inconclusive means that the source gave no clear call. Such entries were picked first, then a sample of the others. Calls follow the shape of the dose curve; as a rule, active = well fitted curve in the direction sought with a large enough effect in the signal ratio (not every such curve was filed as active); inconclusive = small, poorly fitted or top-dose-only effect, or a change in a side signal; inactive = flat fitted curve, though single readings scatter; the % refers to the signal ratio. Potencies of inconclusive entries are doubtful fits and often do not repeat. Potency is read from the fitted curve at half-maximal effect."}
{"experiment": "IkB Signaling;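 as to IkBa stabilization activation: 0% = basal untreated cells and 100% = reference inhibitor full response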", "conditions": "ABC-DLBCL IkBa-CBG/CBR dual luciferase ratio (green luciferase fused to IkBa over red control in OCI-Ly3 lymphoma cells), 4 h; IkBa stabilization activation: at 57.1 µM (top of the series), scaled: untreated 0%, proteasome inhibitor 100% unless noted", "outline": "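In this assay, an IκBα–CBG68 fusion accumulates when IKK-driven degradation is blocked; native CBR normalizes for cell number. OCI-Ly3 cells were treated 4 h with compound and doxycycline, then green and red light read after Chroma-Glo addition.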"}
{"compound": "Cc1nn(-c2ccccc2)c2sc(C(=O)N3CCCCC3)cc12", "IkBa stabilization activation": "inconclusive: 1.04% [signal inhibitor]"}
{"compound": "CCCCC[C@H](CC(=O)NO)C(=O)N[C@@H](C(=O)N1CCC[C@H]1CO)C(C)C", "IkBa stabilization activation": "inactive: 6.05%"}
{"compound": "CCCn1c(=O)c2[nH]c(-c3ccccc3)nc2n(CCC)c1=O", "IkBa stabilization activation": "inactive: 0.168%"}
{"compound": "O=C(O)CCc1ccc(-c2ccc(Cl)cc2)n1-c1cccc(C(F)(F)F)c1", "IkBa stabilization activation": "inconclusive: 10.9% [signal inhibitor]"}
{"compound": "O=C(Cc1ccc(F)cc1)NCCc1csc(-c2ccc(C(F)(F)F)cc2)n1", "IkBa stabilization activation": "inactive: -2.69%"}
{"compound": "Cc1ccc2[nH]c3c(=O)n(CC(=O)N(C)Cc4ccccc4)ncc3c2c1", "IkBa stabilization activation": "inconclusive: 0.662% [signal inhibitor]"}
{"compound": "CCOC(=O)c1cnc(NCc2ccc(Cl)cc2)c2ccccc12", "IkBa stabilization activation": "inconclusive: -0.959% [signal inhibitor]"}
{"compound": "Cn1c(CN2CCCCC2)nc2cc(NC(=O)c3ccc(Cl)cc3)ccc21", "Potency": "inconclusive: 12.6 µM [signal inhibitor, partial curve]"}
{"compound": "Cc1ccc(-n2c(C)cc(C3N=C(N)Nc4nc5ccccc5n43)c2C)c(C)c1", "note": "(stereo unspecified)", "IkBa stabilization activation": "inconclusive: -1.76% [signal inhibitor]"}
{"compound": "c1cc2c(cc1-c1cnc3n1CCC3)OCCO2", "IkBa stabilization activation": "inconclusive: 2.14% [signal inhibitor]"}
{"compound": "Nc1cc(N)c(OCC(F)(F)F)cc1OCC(F)(F)F", "Potency": "inconclusive: 3.16 µM [rising, full curve]"}
{"compound": "CN(C)CCCN1c2ccccc2Sc2ccc3ccccc3c21", "IkBa stabilization activation": "inactive: 1.07% [at 11.4 µM, scaled: untreated 0%, proteasome inhibitor 100%]"}
{"compound": "Cc1cccc(OCCCCn2c(C3CC(=O)N(c4ccc(C)cc4C)C3)nc3ccccc32)c1", "note": "(stereo unspecified)", "IkBa stabilization activation": "inactive: -2.32%"}
{"compound": "CNc1oc(/C=C/c2cc(OC)c(OC)c(OC)c2)nc1C#N", "IkBa stabilization activation": "inconclusive: 8.33% [signal inhibitor]"}
{"compound": "Cc1ccc(C(=O)Nc2ccc(F)cc2)cc1S(=O)(=O)N1CCOCC1", "IkBa stabilization activation": "inconclusive: 0.584% [signal inhibitor]"}
{"compound": "Cc1ccccc1CNC(=O)c1ccc2c(c1)N(Cc1ccccc1)CCS2", "IkBa stabilization activation": "inconclusive: 1.42% [signal inhibitor]"}
{"compound": "Cc1ccc2[nH]c3c(NCc4ccco4)ncnc3c2c1", "IkBa stabilization activation": "inconclusive: -0.274% [signal inhibitor]"}
{"compound": "O=C(CCCn1c(=S)[nH]c2cc3c(cc2c1=O)OCO3)N1CCc2ccccc2C1", "IkBa stabilization activation": "inconclusive: 3.44% [signal inhibitor]"}
{"compound": "Cc1ccc(-c2nnc3n2N=C(c2ccccc2)CS3)cc1", "IkBa stabilization activation": "inactive: 2.28%"}
{"compound": "Cc1ccc(CNC(=O)Cn2cc(C(=O)c3ccc(Cl)cc3)c(=O)c3ccc(C)nc32)cc1", "IkBa stabilization activation": "inconclusive: 3.27% [signal inhibitor]"}
{"compound": "N#CCC(=O)N1CCn2c1nc1ccccc12", "IkBa stabilization activation": "inactive: 0.294%"}
{"compound": "CCOC(=O)COc1ccc(C(=O)c2ccccc2)c(O)c1", "IkBa stabilization activation": "inactive: 0.442%"}
{"compound": "CC(=O)c1cccc(NC(=O)c2cc(-c3ccc4c(c3)OCCO4)on2)c1", "IkBa stabilization activation": "inconclusive: 2.53% [signal inhibitor]"}
{"compound": "COc1ccc2c(c1)CCC1C2CC[C@]2(C)[C@H](NCCCCCCN3C(=O)C=CC3=O)CC[C@@H]12", "note": "(stereo partly specified)", "IkBa stabilization activation": "inactive: -3.7%"}
{"compound": "COc1ccc(CCNC(=O)c2cc3c(=O)[nH]c4ccc(C)cc4c3s2)cc1OC", "IkBa stabilization activation": "inactive: -0.0502%"}
{"compound": "CCOC(=O)c1cnc(-n2nc(C)cc2C)nc1N(C)C", "IkBa stabilization activation": "inactive: -3.8%"}
{"compound": "Cc1ccc([C@@H]2C3COCC=C3C(C#N)=C(N)C2(C#N)C#N)o1", "note": "(stereo partly specified)", "IkBa stabilization activation": "inactive: 0.6%"}
{"compound": "COC(=O)c1ccccc1NC(=O)CCCS(=O)(=O)c1nc(-c2ccccc2OC)cc(C(F)(F)F)n1", "Potency": "inconclusive: 7.94 µM [signal inhibitor]"}
{"compound": "COC(=O)c1ccc(NC(=O)c2c(NCc3ccc(OC)c(OC)c3)sc3c2CCCC3)cc1", "IkBa stabilization activation": "inconclusive: 4.87% [signal inhibitor]"}
{"compound": "CCC(=O)c1ccc(N2CCN(C(=O)COc3ccc(F)cc3)CC2)c(F)c1", "IkBa stabilization activation": "inactive: 2.67%"}
{"compound": "CCOC(=O)c1cccc(NC(=O)C2CCN(S(=O)(=O)c3cccs3)CC2)c1", "IkBa stabilization activation": "inconclusive: 2.48% [signal inhibitor]"}
{"compound": "CCc1nnc(NC(=O)CSc2nnc3c4ccccc4n(C)c3n2)s1", "IkBa stabilization activation": "inactive: -0.707%"}
{"compound": "Cc1cc(NC(=O)CSc2ncc(C(=O)Nc3ccccc3)c(=O)n2C)no1", "IkBa stabilization activation": "inconclusive: 7.65% [signal activator]"}
{"compound": "Cc1cc(C(=O)CSc2nnc(C3COc4ccccc4O3)n2C)c(C)n1-c1ccc(F)cc1", "note": "(stereo unspecified)", "IkBa stabilization activation": "inconclusive: 4.87% [signal inhibitor]"}
{"compound": "COc1ccccc1CNC(=O)C(Cc1ccccc1)NS(=O)(=O)c1ccc2c(c1)CCN2C(C)=O", "note": "(stereo unspecified)", "IkBa stabilization activation": "inconclusive: 0.92% [signal inhibitor]"}
{"compound": "Cc1ccccc1NC(=O)c1ccc(CNS(=O)(=O)c2ccc3c(c2)C(C)(C)C(=O)N3C)cc1", "IkBa stabilization activation": "inconclusive: 0.643% [signal inhibitor]"}
{"compound": "O=C(NCc1ccccn1)c1nn(-c2ccccc2Cl)nc1CO", "IkBa stabilization activation": "inconclusive: -1.07% [signal inhibitor]"}
{"compound": "Cc1nc2sc3c(c2c2nnc(SCC(=O)NCc4ccco4)n12)CCCC3", "IkBa stabilization activation": "inconclusive: 0.241% [signal inhibitor]"}
{"compound": "CCN(CC)C(=O)C1=C(C)Nc2nc3ccccc3n2C1c1ccc(Cl)cc1", "note": "(stereo unspecified)", "IkBa stabilization activation": "inconclusive: 3.77% [signal inhibitor]"}
{"compound": "Cc1ccc(Cl)cc1N(C)C(=O)c1cc2ccc3cccnc3c2[nH]1", "IkBa stabilization activation": "inconclusive: -6.11% [signal inhibitor]"}
{"compound": "CC(=O)OC/C=C(C)/C=C/C=C(C)/C=C/C1=C(C)CCCC1(C)C", "IkBa stabilization activation": "inconclusive: 15.7% [signal activator]"}
{"compound": "CCCCOc1ccc(C(=O)NCCc2csc3nc(-c4ccccc4F)nn23)cc1", "IkBa stabilization activation": "inconclusive: 4.94% [signal inhibitor]"}
{"compound": "CC1=C(C(=O)OCCOC(C)C)C(c2cccnc2)C2=C(CCCC2=O)N1", "note": "(stereo unspecified)", "IkBa stabilization activation": "inactive: 0.563%"}
{"compound": "CCOc1ccccc1C(=O)NCC(c1ccc(N(C)C)cc1)N1CCCC1", "note": "(stereo unspecified)", "IkBa stabilization activation": "inconclusive: 2.42% [signal inhibitor]"}
{"compound": "Clc1ccc2c(c1)N=C(N1CCNCC1)c1ccccc1N2", "IkBa stabilization activation": "inconclusive: 1.78% [signal inhibitor]"}
{"compound": "CCn1c(CN2CCN(C)CC2)nc2cc(NC(=O)c3cc(OC)c(OC)c(OC)c3)ccc21", "IkBa stabilization activation": "inconclusive: 6.22% [signal inhibitor]"}
{"compound": "CCOC(=O)c1c2n(c3c(NCc4ccccc4)ncnc13)CCCC2", "IkBa stabilization activation": "inactive: -1.21%"}
{"compound": "CSc1ccc(/C=N/n2nnnc2N)cc1", "IkBa stabilization activation": "inactive: -0.311%"}
{"compound": "CCOc1ccccc1C1Nc2ccccc2-c2nnc(SCc3ccccc3)nc2O1", "note": "(stereo unspecified)", "Potency": "inconclusive: 20 µM [signal inhibitor, single point]"}
{"compound": "COc1ccc(Nc2cc(C(=O)NCCCN(C)C3CCCCC3)c3ccccc3n2)cc1", "IkBa stabilization activation": "inactive: -2.31%"}
{"compound": "Cc1c(C(=O)NCc2ccccc2)oc2c1-c1[nH]ncc1CC2", "IkBa stabilization activation": "inactive: 0.8%"}
{"compound": "C=CCn1c(SCC(=O)c2ccc(OC)cc2)nnc1C(C)NC(=O)c1cccs1", "note": "(stereo unspecified)", "IkBa stabilization activation": "inconclusive: 1.45% [signal inhibitor]"}
{"compound": "CCCN(C(=O)Cn1nc(Cc2ccncc2)c2ccccc2c1=O)c1ccccc1C", "IkBa stabilization activation": "inactive: 0.945%"}
{"compound": "COCCCn1c(=N)c(C(=O)NC2CCCC2)cc2c(=O)n3cc(C)ccc3nc21", "IkBa stabilization activation": "inconclusive: 0.343% [signal inhibitor]"}
{"compound": "COc1ccc(CCCc2nnc(SCC(=O)Nc3ccc(Cl)cc3)o2)cc1", "IkBa stabilization activation": "inconclusive: 1.64% [signal inhibitor]"}
{"compound": "Cc1ccccc1CN1C(=O)C(O)(CC(=O)c2cccc(Br)c2)c2ccccc21", "note": "(stereo unspecified)", "IkBa stabilization activation": "inconclusive: 4.55% [signal inhibitor]"}
{"compound": "COC(=O)c1[nH]c2cccc(OC)c2c1NC(=O)CCN1CCN(c2cccc(Cl)c2)CC1", "IkBa stabilization activation": "inconclusive: 0.718% [signal inhibitor]"}
{"compound": "CCOc1ccccc1N(CC)C(=O)c1cc2c(=O)n(CC)c3ccccc3c2s1", "Potency": "inconclusive: 3.98 µM [signal inhibitor, full curve, poor fit]"}
{"compound": "Cc1ccc(CN(C(=O)c2ccc([N+](=O)[O-])cc2)c2ccccn2)cc1", "IkBa stabilization activation": "inconclusive: 0.823% [signal inhibitor]"}
{"compound": "Cc1ccc(OCC(=O)Nc2ccccc2C(=O)OCc2cc(=O)n3c(C)csc3n2)cc1", "IkBa stabilization activation": "inconclusive: 6.09% [signal inhibitor]"}
{"compound": "Cc1ccc(-c2nnc3ccccc3c2C(=O)Nc2cccc(C(F)(F)F)c2)cc1", "IkBa stabilization activation": "inactive: -2.6%"}
{"compound": "COc1ccc(CCN(C)CCc2ccc(OC)c(OC)c2)cc1OC", "IkBa stabilization activation": "inactive"}
{"compound": "CC(C(=O)NCc1ccc(Cl)cc1)n1ccc2cc(S(=O)(=O)N3CCCC3)ccc21", "note": "(stereo unspecified)", "IkBa stabilization activation": "inconclusive: 2.6% [signal inhibitor]"}
{"compound": "Cc1cc(C)cc(NS(=O)(=O)c2ccc3[nH]cc(C(=O)NCc4ccco4)c(=O)c3c2)c1", "IkBa stabilization activation": "inconclusive: 1.11% [signal inhibitor] and inconclusive: 5.37% [signal inhibitor]"}
{"compound": "COc1cccc(NC(=O)CCc2nnc3n(CC(C)C)c(=O)c4ccccc4n23)c1", "IkBa stabilization activation": "inactive: 1.82%"}
{"compound": "CN(c1ccccc1)S(=O)(=O)c1cc(C(=O)N2CCN(c3ccccn3)CC2)ccc1Cl", "IkBa stabilization activation": "inconclusive: 4.17% [signal inhibitor]"}
{"compound": "O=c1c(-c2ccccc2)nc2cnc(N3CCNCC3)nc2n1Cc1ccc(F)cc1", "IkBa stabilization activation": "inactive: -3.52% [at 11.4 µM, scaled: untreated 0%, proteasome inhibitor 100%]"}
{"compound": "O=C(Nc1ccccc1F)c1oc2ccccc2c1NC(=O)C12CC3CC(CC(C3)C1)C2", "IkBa stabilization activation": "inactive: 2.6%"}
{"compound": "Cc1ccc(-c2cc(C(=O)Nc3cc(C)on3)c3ccccc3n2)c(C)c1", "IkBa stabilization activation": "inconclusive: -2.04% [signal inhibitor]"}
{"compound": "CCOc1ccccc1C(=O)Nc1cc2c(cc1N1CCCCC1)n(C)c(=O)n2C", "IkBa stabilization activation": "inconclusive: 8.89% [signal inhibitor]"}
{"compound": "COc1ccc(NC(=O)CSc2n[nH]c(-c3ccccc3)n2)cc1Cl", "IkBa stabilization activation": "inconclusive: 0.0134% [signal inhibitor]"}
